Consider 55 compounds from PMC4336329 (PLoS ONE, 2015).

About 2,200 (0.71%) of roughly 310,000 compounds showed an effect of 50% or more. The effect is printed as a negative number. The list shows a part of the results.

The assay deals with human ether-à-go-go-related gene (hERG) potassium channel (human, UniProt Q12809). Put plainly: primary screen, population patch clamp on CHO cells stably expressing hERG.
Chain of human ether-à-go-go-related gene (hERG) potassium channel (Q12809 whole entry, looked up): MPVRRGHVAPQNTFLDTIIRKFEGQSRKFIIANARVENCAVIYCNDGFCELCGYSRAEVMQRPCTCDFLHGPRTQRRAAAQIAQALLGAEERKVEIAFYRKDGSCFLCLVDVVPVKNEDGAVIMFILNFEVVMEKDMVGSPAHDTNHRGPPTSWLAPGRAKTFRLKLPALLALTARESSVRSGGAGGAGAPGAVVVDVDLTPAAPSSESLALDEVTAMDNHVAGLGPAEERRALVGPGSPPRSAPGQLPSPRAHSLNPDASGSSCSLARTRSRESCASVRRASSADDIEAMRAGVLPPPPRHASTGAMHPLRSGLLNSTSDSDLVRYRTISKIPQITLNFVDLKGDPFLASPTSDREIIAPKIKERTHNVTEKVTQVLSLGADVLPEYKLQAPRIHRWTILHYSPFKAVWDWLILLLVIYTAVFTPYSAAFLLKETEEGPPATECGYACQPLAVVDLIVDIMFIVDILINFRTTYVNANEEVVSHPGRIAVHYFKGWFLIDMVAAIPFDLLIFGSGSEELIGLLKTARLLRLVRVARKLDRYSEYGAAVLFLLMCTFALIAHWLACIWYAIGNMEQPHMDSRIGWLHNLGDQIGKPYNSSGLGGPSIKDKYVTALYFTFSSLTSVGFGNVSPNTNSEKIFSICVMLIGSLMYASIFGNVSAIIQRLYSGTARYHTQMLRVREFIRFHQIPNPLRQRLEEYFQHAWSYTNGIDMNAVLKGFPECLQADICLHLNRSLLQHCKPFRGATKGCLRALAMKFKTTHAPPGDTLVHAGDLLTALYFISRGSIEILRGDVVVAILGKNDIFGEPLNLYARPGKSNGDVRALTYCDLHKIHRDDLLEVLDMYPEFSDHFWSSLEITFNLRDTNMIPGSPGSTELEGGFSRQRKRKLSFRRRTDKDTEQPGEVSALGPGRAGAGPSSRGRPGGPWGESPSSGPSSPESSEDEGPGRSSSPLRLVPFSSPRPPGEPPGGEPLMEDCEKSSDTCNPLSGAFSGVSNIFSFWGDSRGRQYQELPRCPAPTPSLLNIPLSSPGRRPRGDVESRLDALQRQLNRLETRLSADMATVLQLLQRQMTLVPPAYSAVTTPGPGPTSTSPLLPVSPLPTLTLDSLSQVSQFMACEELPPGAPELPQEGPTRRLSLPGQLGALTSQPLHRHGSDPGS
On to `COc1ccccc1N1CCN(C(=O)CN2C(=O)C3CCCCC3C2=O)CC1` (stereo not shown), for which the “hERG current change (%, negative = inhibition) at 1uM” value stood at 13.2%.
With `CCc1ccc(NC(=O)C(C)OC(=O)CN2C(=O)NC3(CCCC3)C2=O)cc1` (stereo not shown), the “hERG current change (%, negative = inhibition) at 1uM” value is reported as 12%.
In the case of `COc1ccc(C(=O)Nc2ccccc2C(=O)O)cc1NC(=O)C(c1ccccc1)c1ccccc1`, the “hERG current change (%, negative = inhibition) at 1uM” value came out at 6.11%.
For the compound `Cc1cc(C)n2ncc(C(=O)NCc3cccnc3)c2n1`, the “hERG current change (%, negative = inhibition) at 1uM” value stood at 3.17%.
With `CCOc1ccc(OCC)c(NC(=O)CN2CCN(c3cccc(C)c3)C(C)C2)c1.Cl` (stereo not shown), the “hERG current change (%, negative = inhibition) at 1uM” value was determined as 16.4%.
As for `COc1cc(SC)ccc1C(=O)Nc1ccc(C)cc1C`, the figure is 10.4%; as for `CCOC(=O)N1CCC(NC(=O)c2cc(S(=O)(=O)N3CCOCC3)ccc2F)CC1`, -5.22%.
As to `O=C(COc1ccc2ccc(=O)oc2c1)c1ccccc1`, the “hERG current change (%, negative = inhibition) at 1uM” value is listed as 15.9%.
On to `CCC(NC(=O)N(Cc1ccccc1)Cc1ccc2c(c1)OCO2)(C(F)(F)F)C(F)(F)F`, for which the “hERG current change (%, negative = inhibition) at 1uM” value amounted to 9.15%.
In the case of `Cc1cc(C)nc(N/N=C/c2cn[nH]c2-c2ccc(F)cc2)n1`, the “hERG current change (%, negative = inhibition) at 1uM” value is on record as 13.8%.
Regarding `COc1ccc(N2CCN(CC(O)COc3ccc(F)cc3)CC2)cc1.Cl` (stereo not shown), the “hERG current change (%, negative = inhibition) at 1uM” value is given as -47.8%.
As for `COc1ccc(S(=O)(=O)N2CCOCC2)cc1NC(=O)CN1C(=O)NC(C)(C2CC2)C1=O` (stereo not shown), the “hERG current change (%, negative = inhibition) at 1uM” value is given as 13.1%.
Regarding `COc1ccc(OCCC(=O)NC2=NCCS2)cc1`, the “hERG current change (%, negative = inhibition) at 1uM” value was -2.66%.
As for `O=C(CN1CCN(c2ccc(Cl)cc2[N+](=O)[O-])CC1)N1CCOCC1`, the “hERG current change (%, negative = inhibition) at 1uM” value stood at 1.27%.
Regarding `CCCC(=O)C1C(=O)NC(=O)NC1=O`, the “hERG current change (%, negative = inhibition) at 1uM” value is listed as 20.6%.
Turning to `C=C1SC(Nc2c(C)cc(C)cc2C)=NC12CCCCC2`, the “hERG current change (%, negative = inhibition) at 1uM” value is 13.3%.
Regarding `COc1ccc(NC(=O)C/C(C)=N/NC(=O)C(=O)Nc2cccc(Cl)c2C)c(OC)c1`, the “hERG current change (%, negative = inhibition) at 1uM” value stood at 6.49%.
Consider `CCN(NC(=O)C(O)(c1ccccc1)c1ccccc1)C(=O)c1ccccc1`, for which the “hERG current change (%, negative = inhibition) at 1uM” value amounted to 4.56%.
In the case of `COc1ccc(NCc2cc(=O)[nH]c3ccccc23)cc1`, the “hERG current change (%, negative = inhibition) at 1uM” value is on record as 10.4%.
As for `Clc1ccccc1CSc1ncccn1`, the figure is 5.52%.
Turning to `COc1ccc(CNS(=O)(=O)NCc2ccc(C)cc2)cc1OC`, the “hERG current change (%, negative = inhibition) at 1uM” value is on record as -8.25%.
As for `O=C1c2ccccc2NC2(CCCC2)N1O`, the figure is 9.23%; as for `O=C(CCn1c(=S)oc2ccccc21)Nc1ccccc1Br`, 16.9%.
For `O=C(NCc1nnnn1-c1ccc(F)c(F)c1)c1ccc2c(c1)OCO2`, the “hERG current change (%, negative = inhibition) at 1uM” value is on record as 6.02%.
On to `CC1(C)Cc2cccc(OCC(O)CNCc3ccccn3)c2O1.Cl` (stereo not shown), for which the “hERG current change (%, negative = inhibition) at 1uM” value is 3.52%.
With `C/C(Nc1ccc(C)cc1)=C(/C#N)C(N)=O`, the “hERG current change (%, negative = inhibition) at 1uM” value was found to be 6.37%.
`Cc1ccc(CC(=O)OCCNC(=O)c2cccnc2)cc1.Cl`: the “hERG current change (%, negative = inhibition) at 1uM” value is reported as 8.42%.
Turning to `C[C@H](NC(=O)c1nc[nH]c1C(=O)NCC(=O)OC(C)(C)C)c1ccccc1`, the “hERG current change (%, negative = inhibition) at 1uM” value is listed as 8.06%.
Then `CC1(C)Cc2c(cnn2-c2ccccc2)C(NC(=O)CCCN2CCCCC2=O)C1` (stereo not shown), with 16.5%; and `CCN1CCN(CC(=O)N2N=C(c3cccs3)CC2c2ccc(C)cc2)C(=O)C1=O` (stereo not shown), with -3.57%; and `COc1ccccc1CNC(=O)C/C(C)=N/NC(=O)Cc1ccccc1`, with -4.5%.
On to `Cc1ccc(NC(=O)CCCC(=O)O)c(-c2nc3ccccc3[nH]c2=O)c1`, for which the “hERG current change (%, negative = inhibition) at 1uM” value is reported as 8.56%.
Then `CCOC(=O)c1c(S(=O)(=O)NCC(=O)Nc2cccc(C)c2)c(C)n(C)c1C`, with 18.6%.
`O=C(O)c1[nH]c2ccc(Cl)cc2c1CC(=O)N1CCN(c2ccccc2)CC1`: the “hERG current change (%, negative = inhibition) at 1uM” value was 12.8%.
With `CC(C)(C)c1ccccc1OCCOCCSc1ncccn1`, the “hERG current change (%, negative = inhibition) at 1uM” value came to 2.49%.
Then `O=C(c1cc(-c2ccccc2)on1)N1CCCc2ccccc21`, with 8.2%; and `COc1ccccc1NC(=O)CN1C(=O)COc2ccc(S(=O)(=O)N3CCCCCC3)cc21`, with 12.3%.
For the compound `CCCCCOc1ccc(NC(=O)CSc2cccc3cccnc23)cc1`, the “hERG current change (%, negative = inhibition) at 1uM” value is 16.3%.
For the compound `COc1ccc(C2=NOC(CNC(=S)N3CCOCC3)C2)cc1` (stereo not shown), the “hERG current change (%, negative = inhibition) at 1uM” value is recorded as 10.6%.
Take `COc1ccc2c(c1)c(CC(=O)OCC(=O)O)c(C)n2C(=O)c1ccc(Cl)cc1`: the “hERG current change (%, negative = inhibition) at 1uM” value was -2.36%.
`CCCCCN(C(=O)CCC(=O)OCc1cccc(Cl)c1)c1c(N)n(CCCC)c(=O)[nH]c1=O`: the “hERG current change (%, negative = inhibition) at 1uM” value was determined as 9.55%.
`NNC(=O)CN1C(c2ccc(Cl)cc2)=Nc2ccc(Br)cc2C1c1ccccc1` (stereo not shown): the “hERG current change (%, negative = inhibition) at 1uM” value is -17.2%.
As to `C=CCN1C(=O)c2ccc(C(=O)N3CCN(c4ccccc4OC)CC3)cc2C1=O`, the “hERG current change (%, negative = inhibition) at 1uM” value was 7.1%.
Then `CC(C)C1Cc2c(C#N)c(N)sc(=S)c2CO1` (stereo not shown), with 0.897%; and `O=C(N/N=C/c1ccncc1)c1ccc(COc2cccc3cccnc23)cc1`, with -22.9%.
For the compound `CCCOc1ccc(NC(=O)OC2CCN(C)CC2)cc1.O=C(O)/C=C/C(=O)O`, the “hERG current change (%, negative = inhibition) at 1uM” value is given as -0.599%.
As to `O=C(NCCc1ccc(Cl)cc1)c1cnccn1`, the “hERG current change (%, negative = inhibition) at 1uM” value turned out to be 11.8%.
With `CC(=O)OC1C([N+]2(C)CCCCC2)C[C@H]2C3CC[C@H]4C[C@H](OC(C)=O)C([N+]5(C)CCCCC5)CC4(C)[C@H]3CCC12C.[Br-]` (stereo partly shown), the “hERG current change (%, negative = inhibition) at 1uM” value stood at 8.82%.
As to `Cc1ccc2nsnc2c1S(=O)(=O)Nc1ccccc1C(=O)O`, the “hERG current change (%, negative = inhibition) at 1uM” value was 4.93%.
`CC(OC(=O)Cc1c(F)cccc1Cl)C(=O)NC1(C#N)CCCCC1` (stereo not shown): the “hERG current change (%, negative = inhibition) at 1uM” value is reported as -11.4%.
For `CCOc1ccc(N(CC(=O)NCCOc2ccccc2OC)S(=O)(=O)c2ccccc2)cc1`, the “hERG current change (%, negative = inhibition) at 1uM” value came out at 3.23%.
Turning to `Cc1ccc(N2C(=O)N(CC(=O)Nc3ccc(C)cc3[N+](=O)[O-])C(=O)C2C)cc1` (stereo not shown), the “hERG current change (%, negative = inhibition) at 1uM” value was found to be 13.6%.
Turning to `Clc1cccc2c1CCN(Cc1nc(-c3cnccn3)no1)C2`, the “hERG current change (%, negative = inhibition) at 1uM” value turned out to be 11.9%.
As for `COc1cc(/C=C/C(=O)OCC(=O)NC2CCS(=O)(=O)C2)ccc1O` (stereo not shown), the “hERG current change (%, negative = inhibition) at 1uM” value came out at 7.58%.
On to `Cc1ccc(-n2c(C)cc(/C=C3/C(=O)NC(=O)N(Cc4ccco4)C3=O)c2C)cc1`, for which the “hERG current change (%, negative = inhibition) at 1uM” value worked out at 16.5%.
